Laboratory results from PubChem BioAssay AID463173 (ICCB-Longwood Screening Facility, Harvard Medical School, 2010).
In all, about 52,000 compounds went through this assay and about 4,300 (8.3%) were called active. No stated cut-off is given here; in the data, active means survival mostly below about 52% (no sharp cut-off); inactive means mostly above about 56%. The list shows a part of the results.

The compounds below were run on DeltatarO mutant (assay: S. aureus survival, RN4220 and DeltatarO strains – OD600, teichoic acid synthesis inhibitors, primary screen (AID 463173)). Details: S. aureus RN4220 wild type/DeltatarO growth, OD600, 18 h, hits give low values, screened at 18.75 µg/mL (by protocol).

Row | SMILES | survival
1 | O=C(Nc1ccccc1Cl)C1CCN(c2nc3ccccc3nc2C(F)(F)F)CC1 | inactive: 92%
2 | CCCN1CC=C2C(C#N)=C(N)C(C#N)(C#N)C(C(C)C)C2C1 (stereo not given) | inactive: 90%
3 | Cn1c(=O)c2c(-c3cccc(Br)c3)n(C(C)(C)CO)cc2n(C)c1=O | inactive: 84%
4 | S=C(NCCCN1CCOCC1)N1CCN(c2ccccc2)CC1 | inactive: 84%
5 | COc1cccc(C(=O)N2CCN(CCc3ccncc3)CC2)c1 | inactive: 87%
6 | Cc1cccc(-c2cc3nc4c(c(NCCN(C)C)n3n2)CCC4)c1 | inactive: 116%
7 | Cc1cc2nc(-c3ccc(OCc4ccccc4Cl)cc3)cc(C(F)(F)F)n2n1 | active: 25%
8 | Cc1ccc(NS(=O)(=O)c2ccc3c(c2)n(C)c(=O)n3C)cc1C | inactive: 67%
9 | O=C1N(Cc2ccccc2)c2ccc(Cl)cc2C1(O)c1c[nH]c2ccccc12 (stereo not given) | inactive: 66%
10 | Fc1ccc(Nc2ncnc3onc(-c4cccc(Cl)c4)c23)c(F)c1 | inactive: 84%
11 | COc1cccc2c1cc1c(=O)n(CC(=O)N3CCN(c4ccc(Cl)cc4)CC3)nc(C)n12 | inactive: 132%
12 | Cc1ccc(S(=O)(=O)NC2(C(F)(F)F)NC(=O)N(CCc3ccccc3)C2=O)cc1 (stereo not given) | inactive: 62%
13 | C=CCn1c(SC(CCO)C(=O)NCc2ccco2)nc2sc3c(c2c1=O)CCC3 (stereo not given) | inactive: 89%
14 | CCc1cc2cc(C)cc(C)c2nc1Cl | inactive: 68%
15 | CSc1nc2c(c(=O)[nH]1)C(c1cccc(F)c1F)CC(=O)N2 (stereo not given) | inactive: 111%
16 | NS(=O)(=O)c1ccc(CCNc2nccn(-c3cccc(C(F)(F)F)c3)c2=O)cc1 | inactive: 102%
17 | O=S(=O)(Nc1cc(F)ccc1F)c1ccc2[nH]c3c(c2c1)CCCC3 | inactive: 84%
18 | CC(C)(C)C(=O)Nc1ccc2nc(SCC(=O)N3CCOCC3)sc2c1 | inactive: 81%
19 | COc1cccc(CNn2cnnc2)c1O | inactive: 103%
20 | CC(C)c1ccc(NC(=O)CS(=O)(=O)c2cccc3nsnc23)cc1 | inactive: 78%
21 | COc1cccc(CNC(=O)c2ccc3c(c2)c(C)c(C)n3Cc2ccccc2)c1OC | inactive: 94%
22 | CCCCN(CCCC)CCNC(=O)Cn1nc(C)n2c(cc3sccc32)c1=O | inactive: 95%
23 | CCOC(=O)c1cc2c(=O)n3ccccc3nc2n(C(C)C)c1=NC(=O)c1cc2ccccc2o1 | active: 25%

Row | SMILES | survival
24 | COc1ccc(CNC(=O)CN2C(=O)COc3ccc(S(=O)(=O)Nc4ccccc4)cc32)cc1 | inactive: 66%
25 | O=C(c1ccccc1)n1nc(-c2ccccc2)nc1NCc1ccc(F)cc1 | active: 12%
26 | CCc1ccc(C(=O)c2cn(CC(=O)NC3CCCCC3)c3nc(C)ccc3c2=O)cc1 | inactive: 80%
27 | O=C(Nc1ccc(F)c(F)c1)c1cc(S(=O)(=O)NC2CCCCCC2)ccc1F | inactive: 54%
28 | COc1ccc(-n2ccnc(NCc3ccccc3OC)c2=O)cc1 | inactive: 89%
29 | CCOc1ccc(N2CC(NC(=O)/C=C\c3ccc4c(c3)OCO4)CC2=O)cc1 (stereo not given) | inactive: 79%
30 | CNC(=O)c1c(NC(=O)c2ccc(S(=O)(=O)N3CCCCC3)cc2)sc2c1CCC2 | active: 0%
31 | CCc1ccc(Nc2nn(-c3ccc(OC(F)(F)F)cc3)nc2C(C)=O)cc1 | inactive: 92%
32 | Cc1ccc(-c2noc(CNS(=O)(=O)c3ccc(F)cc3)n2)cc1 | inactive: 81%
33 | COc1ccccc1N1CCN(C(=O)CN2C(=O)COc3ccc(S(=O)(=O)N4CCCCCC4)cc32)CC1 | inactive: 75%
34 | CCN(CC)c1ccc(NC(=O)c2cnc3c(-c4ccccc4)c(C)nn3c2C)c(C)c1 | inactive: 89%
35 | CCOC(=O)c1ccccc1NC(=O)CSc1ccc(-c2cccs2)nn1 | inactive: 66%
36 | Cc1ccc2occ(CC(=O)N(Cc3ccc(Cl)cc3)C3CCS(=O)(=O)C3)c2c1 (stereo not given) | inactive: 64%
37 | O=c1c2oc3ccccc3c2n(Cc2cccc(Cl)c2)c(=O)n1Cc1ccco1 | inactive: 72%
38 | CCC(=O)N1N=C2CCCCC2C1(O)C(F)(F)F (stereo not given) | inactive: 93%
39 | O=C(Cc1ccccc1)NC1CC(=O)N(c2ccccc2)C1 (stereo not given) | inactive: 87%
40 | CCOc1ccc(N(CC)S(=O)(=O)N2CCCC(C(=O)Nc3cc(Cl)ccc3C)C2)cc1 (stereo not given) | inactive: 78%
41 | O=C(Nc1cccc(OC(=O)c2ccco2)c1)c1ccccc1 | inactive: 58%
42 | CC(C)COc1ccc(C2=NC(c3ccncc3)=Nc3ccc(F)cc3N2)cc1 | inactive: 113%
43 | O=C(c1noc2c1CCCCC2)N1CCN(c2cccc(C(F)(F)F)c2)CC1 | active: 0%
44 | COc1ccccc1CNc1nc2ccc(Cl)cc2n2cnnc12 | inactive: 114%
45 | CC(C)c1ccc(NC(=O)c2cc(S(=O)(=O)N3CCCCC3)cn2C)cc1 | inactive: 92%
46 | CN1CCN(C(=O)Cn2c(-c3cccs3)cc3cc(Cl)ccc32)CC1 | inactive: 99%

Row | SMILES | survival
47 | Cc1ccc(Cl)cc1N1CCN(C(=O)C2CCN(S(=O)(=O)c3cccc4nonc34)CC2)CC1 | inactive: 94%
48 | Cc1ccccc1OC(=O)CSc1nnc(-c2ccc3c(c2)OCO3)o1 | inactive: 101%
49 | Cc1cc2ccccc2n1CCNC(=O)c1cc(C(F)(F)F)cc(C(F)(F)F)c1 | inactive: 125%
50 | Cn1nnc2c(N3CCN(c4ccccc4)CC3)ncnc21 | inactive: 74%
51 | COCCn1c(SCC(=O)c2ccc(C)cc2C)nc2cc(C(=O)NC3CCCC3)ccc2c1=O | inactive: 126%
52 | O=C(Cn1nc(N2CCN(c3ccccc3)CC2)ccc1=O)Nc1ccc(F)cc1F | inactive: 91%
53 | C/C=C/C(=O)Nc1nc2ccc(OC)cc2s1 | inactive: 81%
54 | COc1ccc(CNC(=O)C2CCCN(C(=O)N3CCOc4ccccc43)C2)cc1 (stereo not given) | inactive: 101%
55 | COc1cc(C2SC[C@H]3C(=O)N(c4ccccc4)C(=O)N23)cc(OC)c1OC (stereo not given in full) | inactive: 75%
56 | Cc1ccccc1-c1nc(CN2CCC(C(=O)NCCc3ccccc3)CC2)c(C)o1 | inactive: 81%
57 | O=C(CCCn1c(=O)c2ccccc2n(CC(=O)Nc2cccc(C(F)(F)F)c2)c1=O)NCc1ccc2c(c1)OCO2 | inactive: 104%
58 | CCN(CC)CCNC(=O)c1ccc(CSc2nc3ccncc3n2Cc2cccc(F)c2)cc1 | inactive: 92%
59 | CC(C)(C)c1ccc(C(=O)N2CCC(c3nc(-c4ccc(S(=O)(=O)N5CCCC5)cc4)no3)CC2)cc1 | inactive: 79%
60 | CCCCN(CC)CCCNC(=O)Cn1ncc2c3ccccc3n(Cc3ccccc3F)c2c1=O | inactive: 108%
61 | CCOc1ccc(-c2cc3c(=O)n(Cc4nc(-c5ccc(OC(C)C)cc5)oc4C)ccn3n2)cc1Cl | inactive: 171%
62 | CCOc1ccc(N2CC(NC(=O)c3ccc(S(=O)(=O)N4CCCC4)cc3)CC2=O)cc1 (stereo not given) | inactive: 87%
63 | Cc1ccc(Cl)cc1NC(=O)Nc1nnc(N2CCCC(C)C2)s1 (stereo not given) | inactive: 72%
64 | COc1ccccc1CNC(=O)CCNS(=O)(=O)c1ccc2c(c1)CCCC(=O)N2 | inactive: 60%
65 | CCOC(=O)c1c(C)[nH]c(C)c1S(=O)(=O)NCC(=O)NCc1ccc(C)cc1 | inactive: 94%
66 | CCN(CC)S(=O)(=O)c1ccc2c(c1)nc(CN(C)C(=O)Nc1ccc(Cl)cc1)n2C | inactive: 91%
67 | COc1cccc(N2CCN(c3ncnc4c3c(-c3ccccc3)cn4-c3ccc(C)cc3)CC2)c1 | inactive: 99%
68 | O=C(NCc1cccn1Cc1ccccc1)Nc1ccc(Br)cc1F | inactive: 66%
69 | O=C(Nc1ccccc1C(=O)OCc1cc(=O)n2ccsc2n1)c1ccc(Cl)cc1 | inactive: 76%

Row | SMILES | survival
70 | O=C(COCc1cc(-c2ccc(F)cc2)on1)Nc1cccc(Cl)c1Cl | active: 46%
71 | CCCc1cc(=O)[nH]c2nnc(SCC(=O)Nc3ccc(OC)cc3)n12 | inactive: 90%
72 | Cc1ccc(S(=O)(=O)c2nnn3c2nc(NC(C)c2ccccc2)c2sccc23)cc1 (stereo not given) | inactive: 79%
73 | CCOc1ccccc1C(=O)Nc1ccc(S(=O)(=O)Nc2onc(C)c2C)cc1 | inactive: 77%
74 | Cc1cc(=S)[nH]c2ccccc12 | inactive: 105%
75 | CCOc1cccc(C2c3[nH]c4ccccc4c3CCN2C(=O)c2ccccc2F)c1 (stereo not given) | inactive: 84%
76 | Cc1cccc(-c2nc3scc(CCNS(=O)(=O)c4c(C)noc4C)n3n2)c1 | inactive: 96%
77 | Cc1ccc(F)cc1NC(=O)CCc1c(C)nn(-c2ccc(N3CCCC3)nn2)c1C | inactive: 78%
78 | CCCCC(=O)Oc1ccc2oc(-c3ccc(OC)cc3)cc(=O)c2c1 | active: 30%
79 | CCOC(=O)c1c(SCC(=O)Nc2nc3ccccc3s2)nc(=O)[nH]c1C | active: 6%
80 | CCC(Sc1nnc(C)n2c1cc1sccc12)C(=O)Nc1ccccc1F (stereo not given) | inactive: 71%
81 | Cc1ccc(NC(=O)CSc2nc3ccc(NC(=O)c4cccs4)cc3s2)cc1 | inactive: 81%
82 | CCOc1cc(CNC(=O)c2ccc(Cn3c(=O)c4cccn4c4cccnc43)cc2)ccc1OC | active: 52%
83 | O=C(Cn1c(=O)n(Cc2ccc(Cl)cc2)c(=O)c2cccnc21)Nc1ccccc1C(F)(F)F | inactive: 80%
84 | Cc1ccc(NC(=O)CNC(=O)Cn2c(C)cc3ccccc3c2=O)cc1F | inactive: 65%
85 | COCCNC(=O)c1c(-c2ccccc2)c(-c2ccccc2)nn(C)c1=O | inactive: 108%
86 | Cc1ccc(-n2nc3c(=O)n(CCCC(=O)NCc4ccccc4C)nc(C)c3c2C)cc1 | inactive: 120%
87 | Cn1c(=O)oc2cc(S(=O)(=O)N3CCC(C(=O)NCc4ccccc4)CC3)ccc21 | inactive: 101%
88 | CCOC(=O)c1c(C)c(-c2ccccc2)n(CC(=O)NCc2cccc(OC)c2)c1C | inactive: 89%
89 | CC(C)C(=O)c1cn(CC(=O)NCC2CCCO2)c2ccccc12 (stereo not given) | inactive: 104%
90 | Cc1ccc([N+](=O)[O-])cc1S(=O)(=O)N1CCn2cccc2C1c1ccccc1F (stereo not given) | inactive: 76%
